# According to PubChem BioAssay AID488969 (Vanderbilt High Throughput Screening Facility, 2010):
# Whole data set: some 110,000 compounds, median “z-score” near -0.1, cut for the highest 2% near 2. The list shows a part of the results.
# Target: Metabotropic glutamate receptor 8 (Rattus norvegicus) (UniProt P70579)
# Assay: mGluR8 Gi/Go-coupled signaling modulation – cell-based, rat, thallium flux, HTS, primary screen (AID 488969)
# Conditions: HEK293 rat mGluR8, GIRK (G protein-gated inwardly rectifying potassium channel) thallium flux, FluoZin2; at 10 µM; stronger effect = higher value; submaximal glutamate (EC20) added with thallium
# Sequence of UniProt P70579 (P70579 whole entry, looked up): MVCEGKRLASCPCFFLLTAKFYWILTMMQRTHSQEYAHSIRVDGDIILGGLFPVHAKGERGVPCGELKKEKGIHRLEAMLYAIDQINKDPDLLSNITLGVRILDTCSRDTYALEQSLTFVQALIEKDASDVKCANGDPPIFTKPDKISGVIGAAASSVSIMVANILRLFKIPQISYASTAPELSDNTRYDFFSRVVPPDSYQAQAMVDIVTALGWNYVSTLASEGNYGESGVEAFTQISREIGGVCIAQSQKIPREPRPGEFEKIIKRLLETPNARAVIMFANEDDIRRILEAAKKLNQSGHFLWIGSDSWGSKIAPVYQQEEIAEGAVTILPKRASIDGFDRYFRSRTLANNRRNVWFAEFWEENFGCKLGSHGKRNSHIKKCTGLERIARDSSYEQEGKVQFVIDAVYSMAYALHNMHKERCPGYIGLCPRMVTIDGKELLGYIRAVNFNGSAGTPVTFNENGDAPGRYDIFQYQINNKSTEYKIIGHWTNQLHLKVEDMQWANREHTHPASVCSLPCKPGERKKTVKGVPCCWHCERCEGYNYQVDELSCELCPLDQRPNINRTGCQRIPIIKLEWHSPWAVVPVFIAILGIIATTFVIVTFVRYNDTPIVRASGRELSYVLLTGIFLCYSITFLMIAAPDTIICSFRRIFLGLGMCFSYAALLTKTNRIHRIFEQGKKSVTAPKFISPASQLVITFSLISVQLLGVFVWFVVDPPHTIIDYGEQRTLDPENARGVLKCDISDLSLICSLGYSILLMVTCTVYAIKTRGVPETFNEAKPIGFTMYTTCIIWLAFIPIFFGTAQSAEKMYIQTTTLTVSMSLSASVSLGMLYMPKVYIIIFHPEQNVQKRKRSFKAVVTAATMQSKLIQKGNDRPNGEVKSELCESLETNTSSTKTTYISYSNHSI
row,Compound,z-score
1,CCOC(=O)c1c(NC(=O)COC(=O)c2ccccn2)sc2c1CCC2,-0.578
2,O=C1NN(c2ccc(Cl)c(Cl)c2)C(=O)/C1=C/c1cccc(OC(=O)c2cccs2)c1,0.137
3,Cc1cc(C)cc(OCC(=O)O/N=C(\N)c2ccccn2)c1,-1.66
4,O=C(COC(=O)Cc1ccccc1F)Nc1ccc2c(c1)OCCO2,-0.043
5,CC(C)CNC(=S)NNC(=O)c1csc2c1CCC(C)C2 (stereo not given),-1.59
6,COc1ccc(NS(=O)(=O)c2cc(NC(=O)CNC(=O)c3cccc(OC)c3)ccc2C)cc1,-0.127
7,CS(=O)(=O)N1CCCC(C(=O)NCc2ccccn2)C1 (stereo not given),0.915
8,COc1cccc2c(=O)n(CC(=O)Nc3ccc(F)cc3F)ccc12,0.0182
9,O=[N+]([O-])c1cccc(CSc2nc3ccccc3[nH]2)c1,0.239
10,CCOc1ccc(C(F)(F)F)cc1NC(=O)c1ccc(OC)c([N+](=O)[O-])c1,0.372
11,N#Cc1nc(Cc2ccccc2)oc1NCCN1CCOCC1,-0.064
12,O=C(NCC(=O)N(CC1CCCO1)C1(C(=O)NC2CCCCC2)CCCCC1)c1ccccc1 (stereo not given),-1.13
13,CCOc1cc(S(=O)(=O)N2CCCC2)ccc1Cl,0.185
14,COCCNc1cc(C)nc2c3c(C)cc(C)nc3nn12,-0.343
15,COC(=O)C(NC(C)=O)(Nc1ccccn1)C(F)(F)F (stereo not given),0.324
16,COc1ccc(NC(=O)Nc2cc(C)ccc2F)cc1,0.0419
17,Cc1ccc(S(=O)(=O)N2CCCC(C(=O)NCC3COCCO3)C2)cc1 (stereo not given),-0.056
18,COC(=O)Cn1c(CN2CCC(Cc3ccccc3)CC2)nc2c1c(=O)n(C)c(=O)n2C,0.485
19,COc1cc(NC2=Nc3cccc4cccc2c34)cc(OC)c1OC,-0.385
20,O=C(CSCc1ccccc1Cl)N1CCN(c2ccccn2)CC1,-0.566
21,Cc1cccc(C2CC(c3ccc(Br)cc3)Nc3nc(N)nn32)c1 (stereo not given),0.474
22,O=C(COc1cc(Cl)c(Cl)cc1Cl)NCCN1CCOCC1,-0.906
23,O=C(NCC1CCCO1)c1ccc(S(=O)(=O)N2CCCCC2)cc1 (stereo not given),-0.0626
24,O=C1c2ccccc2-c2cccc(NS(=O)(=O)c3ccc(C(F)(F)F)cc3)c21,2.66
25,Cc1nonc1C(=O)N/N=C/c1ccc(O)c(O)c1,-0.332
26,O=C(NCc1ccco1)C1CCN(Cc2ccc(F)cc2)CC1,0.293
27,O=C(NCc1ccccc1Cl)C1CCCN(S(=O)(=O)c2cnc[nH]2)C1 (stereo not given),-0.129
28,O=C(c1cn(-c2ccccc2)nc1-c1cccnc1)N1CCCCC1,-0.0479

row,Compound,z-score
1,CCOC(=O)C(=O)Nc1ccc2c(c1)OCO2,0.0617
2,CS(=O)(=O)N(CC(=O)Nc1ccc(F)c(F)c1)c1cccc([N+](=O)[O-])c1,0.348
3,O=C1N/C(=N\N=C\c2cccs2)SC1Cc1cccc(Cl)c1 (stereo not given),-0.183
4,C=CCc1ccccc1OCC(O)CN(C(C)C)C(C)C (stereo not given),0.467
5,N=c1n(CCN2CCCCC2)c2ccccc2n1CC(O)COc1ccccc1 (stereo not given),1.11
6,O=C(/C=C/c1cn(CC(O)CN2CCCCCC2)c2ccccc12)c1cccs1 (stereo not given),-0.724
7,Cc1ccc(NC(=O)c2ccccc2-c2ccc(C(F)(F)F)cc2)cc1S(=O)(=O)N1CCOCC1,0.431
8,CCCNS(=O)(=O)c1ccc(OCC(=O)OC)cc1,-0.126
9,Cc1cc(C(=O)CSc2nc3ccccc3[nH]2)c(C)n1C,-0.063
10,Cc1cc(C)cc(N(C(=O)c2nsc(Cl)c2Cl)C(C(=O)NC2CCCC2)c2ccc(O)cc2)c1 (stereo not given),-0.0535
11,O=C(CSc1nc(SCC(=O)NCc2ccccc2)n(-c2ccccc2)n1)NCc1ccccc1,-0.236
12,CCOC(=O)/C(=N/Nc1ccc(Cl)cc1)S(=O)(=O)c1ccccc1,-0.198
13,Cc1nn(C(C)C(=O)O)c(=O)c2c1sc1ccccc12 (stereo not given),-0.395
14,CSc1nc(N)nc(SCC(=O)c2ccc(C)cc2)c1C#N,-0.147
15,O=C(Nc1ccccn1)c1ccc([N+](=O)[O-])o1,-0.0759
16,CCOC(=O)c1ccc(NC(=O)CC2C(=O)N(c3ccccc3)C(=O)N2CCCOC)cc1 (stereo not given),-0.493
17,CC(C)(NO)/C(=N\O)c1ccc(Cl)cc1,0.0275
18,CCOC(=O)c1nn(-c2ccc(Cl)cc2)c2nc(-c3ccc(C)cc3)c(C#N)c(=O)n12,0.000659
19,CCOC(=O)C1=C(C)N(C)C(C)=C(C(=O)OCC)C1c1ccncc1,0.0979
20,O=C(O)c1[nH]c2ccccc2c1NS(=O)(=O)Cc1ccccc1,0.317
21,CSCCC(NS(=O)(=O)c1ccc(Cl)cc1)C(=O)OCC(=O)N1CCCc2ccccc21 (stereo not given),-0.3
22,CCC1(C)CC(CCNS(=O)(=O)c2ccc(C)cc2)(c2ccc(C)cc2)CCO1 (stereo not given),-0.421
23,Fc1ccccc1COc1ccccc1CNCc1ccncc1,0.0916
24,CC(=Nc1ccccc1)c1sc2ccccc2c1O,1.15
25,COC(=O)COc1ccc(S(=O)(=O)Nc2ccc(C(N)=O)cc2)cc1C,0.213
26,COCCCn1c(SCC(=O)Nc2ccccc2)nnc1-c1ccncc1,0.407
27,COc1cc(CN(C)C(C)C(=O)Nc2ccc([N+](=O)[O-])cc2Cl)ccc1OC(F)F (stereo not given),-0.445
